Here are results for 39 compounds from the supplement of paper PMC9446081.

The whole screen tested about 39,000 compounds, of which about 220 (0.56%) showed activity. This is one part of the list.
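Further: static incubation at 37 °C against the wild-type strain, values averaged over two biological replicates.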

The test system of the experiment is Escherichia coli K-12 BW25113. In words: relative growth (OD600 normalised to plate interquartile mean) (fraction); higher = less growth inhibition, active = 0.2 or less. The note with it: 50 µM; LB; incubation time: overnight (16-24 h).
For the compound `C[C@H]1CN([C@@H](C)CO)S(=O)(=O)c2ccc(C#Cc3cccc(F)c3)cc2O[C@@H]1CN(C)S(=O)(=O)c1cn(C)cn1`, the relative growth is inactive: 1.01. Take `N=C1CCCN1Cc1[nH]c(=O)[nH]c(=O)c1Cl`: the relative growth is inactive: 0.975. For the compound `Cc1ccc(NC(=O)N(C)C[C@@H]2OCCCC[C@H](C)Oc3ccc(NC(=O)C4CCCCC4)cc3C(=O)N([C@H](C)CO)C[C@@H]2C)cc1`, the relative growth is inactive: 1.01. Take `CN(C)C1CCN(C(=O)c2cnc(-c3noc4cc(-c5ccccc5C(F)(F)F)ccc34)s2)CC1`: the relative growth is inactive: 0.985. To `CCCNC(=O)Nc1ccc2c(c1)OC[C@H](C)N(C(=O)C1CCOCC1)C[C@H](C)[C@@H](OC)CN(C)C2=O` belongs inactive: 0.991.

As for `Cc1ccc(S(=O)(=O)Nc2ccc3c(c2)CC(=O)N([C@@H](C)CO)C[C@@H](C)[C@H](CN(C)S(C)(=O)=O)O3)cc1`, the relative growth is inactive: 0.979. As for `C[C@@H]1CN([C@@H](C)CO)C(=O)Cc2cc(NS(C)(=O)=O)ccc2O[C@H]1CN(C)Cc1ccc2c(c1)OCO2`, the relative growth is inactive: 0.985. Regarding `C[C@@H]1CN([C@H](C)CO)C(=O)c2cc(NS(=O)(=O)c3cccs3)ccc2O[C@@H](C)CCCCO[C@@H]1CN(C)C(=O)c1ccccc1`, the relative growth was inactive: 1.02. To `CC(C(=O)O)c1ccc(N2Cc3ccccc3C2=O)cc1` (centres undefined) belongs inactive: 1.1; to `C[C@@H]1CN([C@@H](C)CO)C(=O)c2cccc(NC(=O)c3ccc(-c4nccs4)cc3)c2O[C@@H]1CN(C)C(=O)Nc1ccc2c(c1)OCO2`, inactive: 1.02. Consider `COC(=O)CC1C(C)(C)C(=O)C2CC3C4=CC(=O)OC(c5ccoc5)C4(C)CCC3C1(C)C2=O` (centres undefined), for which the relative growth is inactive: 1.07. Consider `O=C(C[C@H]1CC[C@H](NC(=O)CN2CCOCC2)[C@H](CO)O1)NCc1cccc(F)c1`, for which the relative growth was inactive: 1.01. Regarding `C[C@H]1CN([C@@H](C)CO)S(=O)(=O)c2ccc(Br)cc2O[C@H]1CN(C)S(=O)(=O)c1ccc(F)cc1`, the relative growth was inactive: 1.04. The same measure for `C[C@H]1CN([C@@H](C)CO)C(=O)CCCn2cc(nn2)CO[C@@H]1CN(C)S(=O)(=O)c1ccc(Cl)cc1`: inactive: 1.01; for `C=CC[C@H](CC(=O)N(CCO)Cc1ccccc1)C(=O)N[C@H](COC(=O)[C@@H](CC=C)CC(=O)OC(C)(C)C)Cc1c[nH]c2ccccc12`: inactive: 1.11; for `O=C(O)CN(CC(=O)O)Cc1cc2c(-c3ccccc3C(=O)O)c3cc(CN(CC(=O)O)CC(=O)O)c(=O)cc-3oc2cc1O`: inactive: 0.995.

For the compound `CO[C@H](CN(C)C(=O)c1ccc2c(c1)OCO2)[C@H](C)CN([C@H](C)CO)S(=O)(=O)c1ccc(C)cc1`, the relative growth was inactive: 1.02. Consider `COc1ccc(NC(=O)N(C)C[C@H]2Oc3c(NC(=O)c4cnccn4)cccc3C(=O)N([C@H](C)CO)C[C@@H]2C)cc1`, for which the relative growth was inactive: 1. `C[C@@H]1CN([C@@H](C)CO)C(=O)c2cc(NC(=O)C3CC3)ccc2O[C@H]1CN(C)C(=O)NC1CCCCC1`: the relative growth was inactive: 0.973. `C[C@@H]1CCCCO[C@@H](CN(C)C(=O)c2ccccc2)[C@H](C)CN([C@H](C)CO)C(=O)c2cc(NC(=O)c3ccccc3)ccc2O1`: the relative growth is inactive: 1.02.

With `CC(=N)NCc1cccc(CN)c1`, the relative growth is inactive: 0.997.

For `C[C@@H]1CCCCO[C@@H](CN(C)C(=O)C2CCCCC2)[C@@H](C)CN([C@H](C)CO)C(=O)c2cc(NC(=O)NC3CCCCC3)ccc2O1`, the relative growth was inactive: 0.987.

As to `CC(C)c1cccc(NC(=O)C[C@H]2CC[C@H]3[C@@H](COc4ccc(NS(=O)(=O)c5ccccc5Cl)cc4C(=O)N3C)O2)c1`, the relative growth is inactive: 1.03. Consider `C[C@@H]1CN([C@H](C)CO)C(=O)c2cc(NS(=O)(=O)c3cccs3)ccc2O[C@@H]1CN(C)S(=O)(=O)c1ccc(F)cc1`, for which the relative growth was inactive: 1.01.

For `CCCNC(=O)Nc1ccc2c(c1)OC[C@@H](C)N(Cc1ccc(-c3ccccn3)cc1)C[C@H](C)[C@H](OC)CN(C)C2=O`, the relative growth is inactive: 0.996. To `O=C(C[C@H]1CC[C@H]2[C@@H](COC[C@@H](O)CN2S(=O)(=O)c2ccc(Oc3ccccc3)cc2)O1)NC1CCC1` belongs inactive: 0.998. On to `Cc1ccccc1S(=O)(=O)N1C[C@H](O)COC[C@H]2O[C@@H](CC(=O)N3CCN(C)CC3)CC[C@@H]21`, for which the relative growth is inactive: 0.995. Consider `CC(C)NC(=O)N(C)C[C@@H]1Oc2ccc(NS(=O)(=O)c3cccs3)cc2CC(=O)N([C@@H](C)CO)C[C@H]1C`, for which the relative growth is inactive: 0.999. As to `CNC[C@H]1Oc2ccc(NS(=O)(=O)c3cn(C)cn3)cc2CC(=O)N([C@@H](C)CO)C[C@H]1C`, the relative growth was inactive: 0.984. In the case of `Cc1cc(C(=O)Nc2cccc3c2O[C@@H](CN(C)C(=O)NC(C)C)[C@@H](C)CN([C@@H](C)CO)C3=O)n(C)n1`, the relative growth was inactive: 1.01. With `C[C@@H]1CN([C@@H](C)CO)C(=O)c2cc(NS(=O)(=O)c3cccs3)ccc2O[C@@H](C)CCCCO[C@@H]1CN(C)Cc1ccc2c(c1)OCO2`, the relative growth is inactive: 1. For `COc1ccc(CN(C)C[C@@H]2Oc3ccc(NC(=O)Nc4cccc5ccccc45)cc3CC(=O)N([C@H](C)CO)C[C@H]2C)cc1`, the relative growth was inactive: 0.994. To `CC(=O)N1CCO[C@H]2CN(S(=O)(=O)c3cccnc3)C[C@@H]2C1` belongs inactive: 0.994.

For the compound `COc1ccc(S(=O)(=O)N(C)C[C@H]2Oc3c(NC(=O)C4CC4)cccc3C(=O)N([C@@H](C)CO)C[C@@H]2C)cc1`, the relative growth is inactive: 0.993. The same measure for `C[C@H]1CCCCO[C@@H](CN(C)C(=O)NC2CCCCC2)[C@@H](C)CN([C@@H](C)CO)C(=O)c2cc(NS(=O)(=O)c3ccc(F)cc3)ccc2O1`: inactive: 0.999; for `C[C@H]1CN([C@@H](C)CO)C(=O)c2cccc(NC(=O)c3cnccn3)c2O[C@@H]1CN(C)C(=O)Nc1ccc2c(c1)OCO2`: inactive: 0.976. For the compound `C[C@@H]1CN([C@H](C)CO)C(=O)Cc2cc(NC(=O)CCN3CCOCC3)ccc2O[C@H]1CN(C)Cc1ccc2c(c1)OCO2`, the relative growth is inactive: 0.994. In the case of `COc1ccccc1-c1cccc(-c2nc(C(=O)Nc3nccs3)cc3c2[C@@H](CCO)N(C(=O)CC2CC2)C3)c1`, the relative growth is inactive: 1.03. Take `Cc1ccc(S(=O)(=O)N2C[C@@H](O)COC[C@H]3O[C@H](CC(=O)NCc4ccc(Cl)cc4)CC[C@@H]32)cc1`: the relative growth is inactive: 0.977.
